In the RNAGym collection of RNA variant scans (doi:10.1101/gad.245936.114):
Variants at the floor of the assay are shown more often than the library holds them.

B1: tRNA (parent)
chain: CUCUCGGUAGCCAAGUUGGUUUAAGGCGCAAGACUUUAAUUUAUCACUACGAAAUCUUGAGAUCGGGCGUUCGACUCGCCCCCGGGAGAUUUUUUCCUCGAGCAA

Variants of: B1
Assay: nonsense suppression (GFP-seq) (ratio to wild type); higher = more function; SUP4oc tRNA, yeast GFP reporter sort-seq
Outline: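 Yeast carrying genome-integrated SUP4oc tRNA variants from a library with ~3% random mutations were grown in raffinose/galactose medium with 80 mg/L adenine. Each strain also carried a galactose-driven GFP ochre reporter and RFP. Cells were sorted into GFP/RFP bins, and each bin was Illumina-sequenced (phred ≥30). Nonsense suppression (GFPSEQ) is the bin median GFP/RFP, weighted by each variant's estimated cell share per bin, relative to wild-type SUP4oc; variants needed ≥100 reads and ≥30 cells.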

Variant	nonsense suppression
U16A U21A A23C A54C U58G G61C G66A G78U	≤ 0.026
U16A U55C G61C C68A	≤ 0.026
U16A U57C U76G G86A	≤ 0.026
U16A U58A	≤ 0.026
U16A U70A	≤ 0.026
U16A U71C G73C G78A A87C	≤ 0.026
U16C A23C C34G G84C	≤ 0.026
U16C A24G G66U U76C	≤ 0.026
U16C A31U C34G	≤ 0.026
U16C A33G C64U	≤ 0.026
U16C A33U C72G	≤ 0.026
U16C A54U G65A G88C	≤ 0.026
U16C A60C G69A C80U	≤ 0.026
U16C A60G G86C	≤ 0.026
U16C C27U	0.137
U16C C34A	≤ 0.026
U16C C68A G88U	≤ 0.026
U16C C68U	1.03
U16C C79U A89G	≤ 0.026
U16C C81U	1.16
U16C C82A	≤ 0.026

Variant	nonsense suppression
U16C C82G	≤ 0.026
U16C C83G G86A A87G	≤ 0.026
U16C C83U	0.5
U16C G18U C27A G59U A60C U70G	≤ 0.026
U16C G19A U20A C34G A54G A60C C68G G69C	≤ 0.026
U16C G19U G25U	≤ 0.026
U16C G25C G65A	≤ 0.026
U16C G26A A31G	≤ 0.026
U16C G26C A33U	≤ 0.026
U16C G28U U63A	≤ 0.026
U16C G32A G59A C82G	≤ 0.026
U16C G32U	≤ 0.026
U16C G61A G66C	≤ 0.026
U16C G61A U63A	0.186
U16C G61C G66U	≤ 0.026
U16C G65C	≤ 0.026
U16C G66C A87U	≤ 0.026
U16C G66C C68A G78A	≤ 0.026
U16C G67U U71C A74C	≤ 0.026
U16C G78U	0.454
U16C U17A U55G G78U C81A	≤ 0.026

Variant	nonsense suppression
U16C U17C A30G G69A	≤ 0.026
U16C U17C G18A G67A	≤ 0.026
U16C U17C G65U G78A	≤ 0.026
U16C U20A G69A U76G	≤ 0.026
U16C U20C C29A	≤ 0.026
U16C U20G G28A G86U	≤ 0.026
U16C U21G G25A A31G C34A	≤ 0.026
U16C U22C C27U	≤ 0.026
U16C U55C A62U	≤ 0.026
U16C U57C C68A	≤ 0.026
U16C U57G C72G C80A	≤ 0.026
U16C U58C G59A A62C	≤ 0.026
U16C U76A A89U	≤ 0.026
U16C U76G	≤ 0.026
U16G A23U C80G G86C	≤ 0.026
U16G A23U U35A C79G	≤ 0.026
U16G A24G A33U U70C	≤ 0.026
U16G A30C A89C	≤ 0.026
U16G A30U C34G U35G	≤ 0.026
U16G A33C	≤ 0.026
U16G A33G A54C G78A	≤ 0.026

Variant	nonsense suppression
U16G A33U G78U	≤ 0.026
U16G A54U C68A G86C G88U	≤ 0.026
U16G A54U G69C U76C C81U	≤ 0.026
U16G A54U U63C C80G	≤ 0.026
U16G A54U U63G	0.278
U16G A54U U71A C72U G73C C80A	≤ 0.026
U16G A60G	0.39
U16G A62C C82A	≤ 0.026
U16G A62C U71A C81U	≤ 0.026
U16G A62U C72G	≤ 0.026
U16G A89C	≤ 0.026
U16G C27A G28U A30U	≤ 0.026
U16G C27G U76A C82G	≤ 0.026
U16G C27U A31U	≤ 0.026
U16G C27U G66C	≤ 0.026
U16G C29A C79G	≤ 0.026
U16G C29U	1.11
U16G C56A U58G A60C	≤ 0.026
U16G C64A	≤ 0.026
U16G C68A	≤ 0.026
U16G C77A	≤ 0.026
